{"source": "PubChem BioAssay (Tox21)", "note": "Inconclusive results, whose numbers are uncertain, are shown with a selection of clear calls. Potencies of inconclusive entries are doubtful fits and often do not repeat. The source made the active and inactive calls. Unless noted, calls come from the whole dose curve.", "data": [{"test": "qHTS assay to identify small molecule agonists of H2AX (AID 1224845; active = well fitted activation curve with a large enough effect in the signal ratio in the repeat runs, not every such curve was filed as active; inconclusive = weak or mixed curves; the % refers to the signal ratio; note: potency is the fitted concentration of half-maximal effect; tags give direction and shape of the fitted curve or compound fluorescence and quenching; for activation (H2AX phosphorylation): % is set by controls: 0 for no effect and ±100 for the full control effect)", "conditions": "CHO-K1 phospho-H2AX Ser139 HTRF, 3 h; activation (H2AX phosphorylation): at 154 µM (top of the series) unless noted", "summary_of_the_method": "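Phospho-H2AX Ser139 measured by HTRF (ex 320 nm; em 665 and 620 nm) after 24 hr antibody incubation. Compounds, 15 concentrations, 0.76% DMSO, were applied to CHO-K1 cells for 3hr at 37C before lysis.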", "values": [{"compound": "CCC(Cl)C(Cl)C(Cl)CC(Cl)C(Cl)C(C)Cl", "note": "(stereo unspecified)", "activation (H2AX phosphorylation)": "inconclusive: 8.63%"}, {"compound": "Cc1cc(N)c2cc(NC(=O)Nc3ccc4nc(C)cc(N)c4c3)ccc2n1", "activation (H2AX phosphorylation)": "inconclusive: -10.5% [at 70.9 µM]"}, {"compound": "CN(CC1(C)CCCO1)S(=O)(=O)c1ccc(Cl)c(S(N)(=O)=O)c1", "note": "(stereo unspecified)", "Potency": "inactive"}, {"compound": "CC(C)OC=O", "Potency": "inconclusive: 120 µM [activator]"}, {"compound": "O=C1OC(=O)c2cccc3cccc1c23", "Potency": "inconclusive: 114 µM [activator, single point]"}, {"compound": "C=CC(=O)OCCC#N", "Potency": "inconclusive: 114 µM [activator]"}, {"compound": "COc1cc(C=O)ccc1O", "Potency": "inconclusive: 64.1 µM [falling, partial curve, poor fit]"}]}, {"test": "qHTS assay to identify small molecule agonists of the hypoxia (HIF-1) signaling pathway (AID 1224846; active = well fitted activation curve with a large enough effect in the signal ratio in the repeat runs, not every such curve was filed as active; inconclusive = weak or mixed curves; the % refers to the signal ratio; note: potency is the fitted concentration of half-maximal effect; tags give direction and shape of the fitted curve or compound fluorescence and quenching; for activation: % is set by controls: 0 for no effect and ±100 for the full control effect)", "conditions": "HRE-bla ME-180 cells, beta-lactamase ratio, 17 h; activation: at 76.8 µM (top of the series) unless noted", "summary_of_the_method": "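Reporter induction in HRE-bla ME-180 cells is taken as agonism: cells sit 5 hrs after plating, receive compounds or DMSO only, incubate 17 hrs at 37C under 5% CO2, and are loaded with CCF4-AM for beta-lactamase FRET measurement.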", "values": [{"compound": "Nc1cccc(N)n1", "Potency": "inactive"}, {"compound": "CCC(Cl)C(Cl)C(Cl)CC(Cl)C(Cl)C(C)Cl", "note": "(stereo unspecified)", "Potency": "inactive"}, {"compound": "CC(C)OC=O", "Potency": "inconclusive: 65.5 µM"}, {"compound": "OCCC(F)(F)C(F)(F)C(F)(F)C(F)(F)C(F)(F)C(F)(F)C(F)(F)C(F)(F)F", "Potency": "inactive"}, {"compound": "CCCCOCCOC(=O)COc1nc(Cl)c(Cl)cc1Cl", "Potency": "inconclusive: 24.5 µM [falling, single point]"}]}, {"test": "qHTS assay to identify small molecule agonists of H2AX - cell viability counter screen (AID 1224847); note: potency is the fitted concentration of half-maximal effect; nearly all actives have a fitted effect of over 30% in size; tags give direction and shape of the fitted curve", "conditions": "CHO-K1 viability, CellTiter-Glo luminescence, 3 h; series mostly up to 154 µM", "summary_of_the_method": "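Wild-type CHO-K1 cells (10% FBS medium) were plated overnight at 37C, exposed to compounds at 15 concentrations for 3 hr at 37C (0.76% DMSO final), and viability was read as CellTiter-Glo luminescence after 30 min at room temperature.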", "values": [{"compound": "CCCCC(CC)C(=O)O", "note": "(stereo unspecified)", "Potency": "inconclusive: 1.79 µM [cytotoxic, single point]"}, {"compound": "CCC(Cl)C(Cl)C(Cl)CC(Cl)C(Cl)C(C)Cl", "note": "(stereo unspecified)", "Potency": "inconclusive: 113 µM [cytotoxic, partial curve]"}, {"compound": "CCCC(C)c1ccccc1O", "note": "(stereo unspecified)", "Potency": "active: 80 µM"}, {"compound": "C=CC(=O)OCCOC(=O)CCC(=O)O", "Potency": "inconclusive: 2.53 µM [cytotoxic, single point]"}, {"compound": "O=C1OC(=O)c2cccc3cccc1c23", "Potency": "inconclusive: 36.1 µM [cytotoxic, full curve]"}, {"compound": "C=CC(=O)OCCC#N", "Potency": "inconclusive: 114 µM [rising, partial curve, poor fit]"}]}, {"test": "qHTS assay to identify small molecule antagonists of the estrogen related receptor (ERR) signaling pathway from Tox21 library (AID 1224848; active = well fitted inhibition curve with a large enough effect in the repeat runs; inconclusive = weak or mixed curves; inactive = no such curve, though single readings can be large or run the other way; note: nearly all actives have a fitted effect of over 50% in size; note: potency is the fitted concentration of half-maximal effect; tags give direction and shape of the fitted curve)", "conditions": "ERR reporter cell line, luciferase antagonist mode, 18 h; series mostly up to 92.4 µM", "summary_of_the_method": "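ERR cell line, 2,000 cells/well. 6 h settle, then compound (DMSO) added; 18 h at 37 C; ONE-Glo luminescence after 30 min RT.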", "values": [{"compound": "Cc1[nH]cnc1CN1CCc2c(c3ccccc3n2C)C1=O", "Potency": "inactive"}, {"compound": "Cc1nc2ccccn2c(=O)c1CCN1CCC(C(=O)c2ccc(F)cc2)CC1", "Potency": "inconclusive: 26.6 µM [inhibitor, partial curve]"}, {"compound": "Cc1nc(C)nc(N2C[C@@H](C)N(c3ccnc([C@@H](C)O)n3)[C@@H](C)C2)n1", "Potency": "active: 13.3 µM"}]}]}
